This is one part of the list. Most values come without repeats; read them as rough.
Experiments:
Test in all cases: cell count relative to DMSO control; melanoma cells; higher = more viable cells
Conditions in all cases: library dose: low library concentration; 72 h
MZ2-MEL = system: MZ2-MEL
MeWo = system: MeWo
RPMI7951 = system: RPMI7951
RVH-421 = system: RVH-421
SkMel28 = system: SkMel28
SkMel2 = system: SkMel2
SkMel30 = system: SkMel30
UACC62 = system: UACC62
SkMel5 = system: SkMel5
UACC257 = system: UACC257
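Further: cell number obtained by counting DAPI-stained nuclei in high-throughput microscope images with image analysis software, screen run in 1,536-well plates.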

Row | Compound | cell count (MZ2-MEL) [%] | cell count (MeWo) [%] | cell count (RPMI7951) [%] | cell count (RVH-421) [%] | cell count (SkMel28) [%] | cell count (SkMel2) [%] | cell count (SkMel30) [%] | cell count (UACC62) [%] | cell count (SkMel5) [%] | cell count (UACC257) [%]
1 | Nc1ncn([C@H]2C[C@H](O)[C@@H](CO)O2)c(=O)n1 [decitabine] + Nc1cccc2c1CN(C1CCC(=O)NC1=O)C2=O [lenalidomide] (first compound 0.1 µM, partner dose 1 µM) | 84.6 | 94.1 | 85.5 | 97.4 | 88 | 114 | 107 | 65.6 | – | –
2 | CC(=O)O[C@@]12CO[C@@H]1C[C@H](O)[C@@]1(C)C(=O)[C@H](O)C3=C(C)[C@@H](OC(=O)[C@H](O)[C@@H](NC(=O)OC(C)(C)C)c4ccccc4)C[C@@](O)([C@@H](OC(=O)c4ccccc4)[C@H]21)C3(C)C [Docetaxel] + OCc1c[nH]c2ccccc12 [Indole-3-carbinol] (first compound 0.0001 µM, partner dose 0.8 µM) | 43.9 | 41.3 | 33 | 91.2 | 32.3 | 40.3 | 39.4 | 44.5 | – | –
3 | CC(=O)O[C@@]12CO[C@@H]1C[C@H](O)[C@@]1(C)C(=O)[C@H](O)C3=C(C)[C@@H](OC(=O)[C@H](O)[C@@H](NC(=O)OC(C)(C)C)c4ccccc4)C[C@@](O)([C@@H](OC(=O)c4ccccc4)[C@H]21)C3(C)C [Docetaxel] + Cn1c(Nc2ccc(C(F)(F)F)cc2)nc2cc(Oc3ccnc(-c4ncc(C(F)(F)F)[nH]4)c3)ccc21 [CHIR265] (first compound 0.0001 µM, partner dose 0.08 µM) | 27.7 | 31.3 | 34.5 | 62.5 | 31.5 | 32.4 | 19.3 | 24.8 | – | –
4 | Nc1ccn([C@@H]2O[C@H](CO)[C@@H](O)C2(F)F)c(=O)n1 [gemcitabine] + CCCS(=O)(=O)Nc1ccc(F)c(C(=O)c2c[nH]c3ncc(Cl)cc23)c1F [PLX4720] (first compound 0.0004 µM, partner dose 0.08 µM) | 85.1 | 97.4 | 86.8 | 94.7 | 85.5 | 93.3 | 93.1 | 71.7 | – | –
5 | CO[C@H]1C[C@@H]2CC[C@@H](C)[C@@](O)(O2)C(=O)C(=O)N2CCCC[C@H]2C(=O)O[C@H]([C@H](C)C[C@@H]2CC[C@@H](OCCO)[C@H](OC)C2)CC(=O)[C@H](C)/C=C(\C)[C@@H](O)[C@@H](OC)C(=O)[C@H](C)C[C@H](C)/C=C/C=C/C=C/1C [everolimus] + Cc1cc(N2CCOCC2)cc2[nH]c(-c3c(NC[C@@H](O)c4cccc(Cl)c4)cc[nH]c3=O)nc12 [BMS536924] (first compound 0.02 µM, partner dose 0.2 µM) | 61.8 | 65.9 | 94.5 | 83.5 | 55.6 | – | 53 | 78.4 | 81.6 | 43.2
6 | CO[C@H]1C[C@@H]2CC[C@@H](C)[C@@](O)(O2)C(=O)C(=O)N2CCCC[C@H]2C(=O)O[C@H]([C@H](C)C[C@@H]2CC[C@@H](OCCO)[C@H](OC)C2)CC(=O)[C@H](C)/C=C(\C)[C@@H](O)[C@@H](OC)C(=O)[C@H](C)C[C@H](C)/C=C/C=C/C=C/1C [everolimus] + C=CCn1c(=O)c2cnc(Nc3ccc(N4CCN(C)CC4)cc3)nc2n1-c1cccc(C(C)(C)O)n1 [MK1775] (first compound 0.02 µM, partner dose 0.02 µM) | 70.7 | 70.4 | 81.4 | 91.6 | 55.5 | – | 76.9 | 68.2 | 66.9 | 62.7
7 | CO[C@H]1C[C@@H]2CC[C@@H](C)[C@@](O)(O2)C(=O)C(=O)N2CCCC[C@H]2C(=O)O[C@H]([C@H](C)C[C@@H]2CC[C@@H](OCCO)[C@H](OC)C2)CC(=O)[C@H](C)/C=C(\C)[C@@H](O)[C@@H](OC)C(=O)[C@H](C)C[C@H](C)/C=C/C=C/C=C/1C [everolimus] + CC(=O)c1c(C)c2cnc(Nc3ccc(N4CCNCC4)cn3)nc2n(C2CCCC2)c1=O [palbociclib] (first compound 0.02 µM, partner dose 0.04 µM) | 60.9 | 66 | 80.4 | 64 | 64.6 | – | 45.9 | 47.4 | – | –
8 | CO[C@H]1C[C@@H]2CC[C@@H](C)[C@@](O)(O2)C(=O)C(=O)N2CCCC[C@H]2C(=O)O[C@H]([C@H](C)C[C@@H]2CC[C@@H](OCCO)[C@H](OC)C2)CC(=O)[C@H](C)/C=C(\C)[C@@H](O)[C@@H](OC)C(=O)[C@H](C)C[C@H](C)/C=C/C=C/C=C/1C [everolimus] + O=C(O)c1ccc(-c2c[nH]c3ncc(-c4ccccc4)cc23)cc1C1CCCC1 [GSK650394] (first compound 0.02 µM, partner dose 0.16 µM) | 70.4 | 71.8 | 84.6 | 93.4 | 49.6 | – | 75.2 | 72.1 | 109 | 46.6
9 | CO[C@H]1C[C@@H]2CC[C@@H](C)[C@@](O)(O2)C(=O)C(=O)N2CCCC[C@H]2C(=O)O[C@H]([C@H](C)C[C@@H]2CC[C@@H](OCCO)[C@H](OC)C2)CC(=O)[C@H](C)/C=C(\C)[C@@H](O)[C@@H](OC)C(=O)[C@H](C)C[C@H](C)/C=C/C=C/C=C/1C [everolimus] + COc1ccc(COc2ccc(Cc3cnc(N)nc3N)cc2OC)cc1 [GW2580] (first compound 0.02 µM, partner dose 1 µM) | 74 | 77.5 | 82.8 | 80.1 | 50.5 | – | 65.8 | 71.7 | 116 | 91
10 | CO[C@H]1C[C@@H]2CC[C@@H](C)[C@@](O)(O2)C(=O)C(=O)N2CCCC[C@H]2C(=O)O[C@H]([C@H](C)C[C@@H]2CC[C@@H](OCCO)[C@H](OC)C2)CC(=O)[C@H](C)/C=C(\C)[C@@H](O)[C@@H](OC)C(=O)[C@H](C)C[C@H](C)/C=C/C=C/C=C/1C [everolimus] + Cc1cc([N+](=O)[O-])ccc1NS(=O)(=O)c1cc(Cl)ccc1Cl [FH535] (first compound 0.02 µM, partner dose 1 µM) | 68.9 | 74.3 | 87.2 | 65.1 | 47.3 | – | 68.4 | 63.8 | 95.7 | 75
11 | CO[C@H]1C[C@@H]2CC[C@@H](C)[C@@](O)(O2)C(=O)C(=O)N2CCCC[C@H]2C(=O)O[C@H]([C@H](C)C[C@@H]2CC[C@@H](OCCO)[C@H](OC)C2)CC(=O)[C@H](C)/C=C(\C)[C@@H](O)[C@@H](OC)C(=O)[C@H](C)C[C@H](C)/C=C/C=C/C=C/1C [everolimus] + c1cc(-c2cnn3cc(-c4ccc(OCCN5CCCCC5)cc4)cnc23)ccn1 [Dorsomorphin] (first compound 0.02 µM, partner dose 0.4 µM) | 92.6 | 79.5 | 81.3 | 93.5 | 61.2 | – | 56 | 76.8 | 85.6 | 74.6
12 | CO[C@H]1C[C@@H]2CC[C@@H](C)[C@@](O)(O2)C(=O)C(=O)N2CCCC[C@H]2C(=O)O[C@H]([C@H](C)C[C@@H]2CC[C@@H](OCCO)[C@H](OC)C2)CC(=O)[C@H](C)/C=C(\C)[C@@H](O)[C@@H](OC)C(=O)[C@H](C)C[C@H](C)/C=C/C=C/C=C/1C [everolimus] + COc1ccc(-c2ccc3c(N4CCOCC4)nc(N4C[C@@H](C)O[C@@H](C)C4)nc3n2)cc1CO [KU0063794] (first compound 0.02 µM, partner dose 0.02 µM) | 76.5 | 68.2 | 59.1 | 83.9 | 53.7 | – | 67.9 | 61.3 | 96.6 | 60.2

From the supplement of paper PMC4604168 (melanoma cell lines)
